From publication PMC4336329 (PLoS ONE, 2015) come the findings set out here.

Out of some 310,000 compounds screened, about 14,000 (4.5%) showed an effect of 50% or more. The effect is printed as a negative number. The list shows a part of the results.
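Further: peak tail current of the secondary pulse compared with the same well before compound.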

human ether-à-go-go-related gene (hERG) potassium channel, sequence (Q12809 whole entry, looked up): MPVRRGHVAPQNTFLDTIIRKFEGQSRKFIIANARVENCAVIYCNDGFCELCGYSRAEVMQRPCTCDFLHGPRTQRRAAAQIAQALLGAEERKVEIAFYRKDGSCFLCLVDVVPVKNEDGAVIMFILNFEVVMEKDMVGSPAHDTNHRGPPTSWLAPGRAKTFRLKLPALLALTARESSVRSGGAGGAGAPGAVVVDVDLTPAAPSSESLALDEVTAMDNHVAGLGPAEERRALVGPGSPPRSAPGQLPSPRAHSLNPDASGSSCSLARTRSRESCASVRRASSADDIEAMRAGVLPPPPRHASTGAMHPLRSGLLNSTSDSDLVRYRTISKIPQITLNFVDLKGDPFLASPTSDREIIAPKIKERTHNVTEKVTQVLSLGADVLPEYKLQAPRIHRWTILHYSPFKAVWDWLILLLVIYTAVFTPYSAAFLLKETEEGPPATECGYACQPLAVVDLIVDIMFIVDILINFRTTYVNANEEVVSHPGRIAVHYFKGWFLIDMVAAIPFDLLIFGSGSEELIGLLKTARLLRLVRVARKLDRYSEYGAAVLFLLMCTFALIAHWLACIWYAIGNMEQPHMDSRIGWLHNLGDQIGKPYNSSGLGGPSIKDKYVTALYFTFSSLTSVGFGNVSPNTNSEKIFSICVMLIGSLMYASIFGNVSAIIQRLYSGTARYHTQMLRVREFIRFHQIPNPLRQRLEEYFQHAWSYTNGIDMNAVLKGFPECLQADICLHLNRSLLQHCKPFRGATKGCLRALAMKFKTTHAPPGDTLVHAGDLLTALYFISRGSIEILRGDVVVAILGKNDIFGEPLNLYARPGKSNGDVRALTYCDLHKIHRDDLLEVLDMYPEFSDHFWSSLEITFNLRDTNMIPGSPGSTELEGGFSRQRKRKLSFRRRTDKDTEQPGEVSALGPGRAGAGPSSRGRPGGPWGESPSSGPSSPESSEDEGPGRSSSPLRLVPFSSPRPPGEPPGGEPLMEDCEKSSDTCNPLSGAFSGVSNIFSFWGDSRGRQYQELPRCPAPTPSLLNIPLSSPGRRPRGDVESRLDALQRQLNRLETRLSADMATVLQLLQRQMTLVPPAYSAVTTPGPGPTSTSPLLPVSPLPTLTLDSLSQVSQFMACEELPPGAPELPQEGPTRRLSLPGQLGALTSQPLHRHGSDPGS

The assay addresses human ether-à-go-go-related gene (hERG) potassium channel (human, UniProt Q12809). Kind of assay: primary screen, population patch clamp on CHO cells stably expressing hERG.
`CC(C)CCOCC(=O)Nc1cccc(C(=O)O)c1`: the “hERG current change (%, negative = inhibition) at 10uM” value turned out to be 22.5%.

`Cc1cc(S(=O)(=O)NCCN2CCOCC2)c(C)s1.Cl`: the “hERG current change (%, negative = inhibition) at 10uM” value worked out at 8.27%.

For `O=C(O)c1ccc2c3n(nc2c1)-c1ccc(Cl)cc1CO3`, the “hERG current change (%, negative = inhibition) at 10uM” value is listed as 0.84%.

As to `Cc1ccc(N2CN=c3s/c(=C\c4cccnc4)c(=O)n3C2)cc1`, the “hERG current change (%, negative = inhibition) at 10uM” value is reported as -10.9%.

On to `CCc1cccc(NC(=O)C(NC(=O)C2CCCCC2)C(C)C)c1` (stereo not drawn), for which the “hERG current change (%, negative = inhibition) at 10uM” value worked out at 13.1%.

Regarding `CC(C)N(Cc1nccn1C)C(=O)c1cc(COc2ccc(F)cc2Cl)on1`, the “hERG current change (%, negative = inhibition) at 10uM” value amounted to 0.188%.

With `COc1ccc(-c2nc(Cn3c(SCc4ccc(F)cc4)nc4ccncc43)c(C)o2)cc1OC`, the “hERG current change (%, negative = inhibition) at 10uM” value is given as -55.6%.

As for `CCN1CCN(CCn2c(=S)[nH]c3ccccc3c2=O)CC1`, the “hERG current change (%, negative = inhibition) at 10uM” value was -10.5%.

Regarding `O=C(Nc1ccc(N2CCOCC2)c(F)c1)c1ccncc1`, the “hERG current change (%, negative = inhibition) at 10uM” value is listed as 10%.

On to `O=C(CN1C(=O)C2CC=CCC2C1=O)OCCN1C(=O)c2ccccc2C1=O` (stereo not drawn), for which the “hERG current change (%, negative = inhibition) at 10uM” value is listed as 3.66%.

For `CN(C)C(=O)c1c2c(nc3ccccc13)CCCC2`, the “hERG current change (%, negative = inhibition) at 10uM” value is recorded as 21.3%.

Take `CCOC(=O)C1CCN(C(=O)C23CC4CC(CC(C4)C2)C3)CC1`: the “hERG current change (%, negative = inhibition) at 10uM” value is given as -6.68%.

Turning to `O=C(c1cc(-c2ccccc2)nc2ccccc12)N1CCCC1`, the “hERG current change (%, negative = inhibition) at 10uM” value worked out at 2.55%.

In the case of `O=[N+]([O-])c1ccc(Sc2cccc3cccnc23)cc1`, the “hERG current change (%, negative = inhibition) at 10uM” value is on record as -14.9%.

`COc1ccc(NC(=O)Cc2coc3cc(C)ccc23)cn1`: the “hERG current change (%, negative = inhibition) at 10uM” value was determined as 11.1%.

For `CCCOc1ccccc1NS(=O)(=O)c1ccc2[nH]c(=O)[nH]c2c1`, the “hERG current change (%, negative = inhibition) at 10uM” value is listed as 2.91%.

Regarding `COc1cccc(Oc2cn[nH]c2-c2ccc(OC)cc2O)c1`, the “hERG current change (%, negative = inhibition) at 10uM” value is reported as -3.27%.

For `COc1ccc(-c2nn(-c3ccccc3)cc2/C=N/Nc2ccc3ccccc3n2)cc1OC`, the “hERG current change (%, negative = inhibition) at 10uM” value was 5.14%.

Take `O=C(C1CCCO1)N1CCN(S(=O)(=O)c2cc(F)ccc2F)CC1` (stereo not drawn): the “hERG current change (%, negative = inhibition) at 10uM” value was 17.7%.

As to `CN1CCN(NC(=O)c2cc(-c3cccc(Cl)c3)nc3ccccc23)CC1`, the “hERG current change (%, negative = inhibition) at 10uM” value is given as -35.9%.

As to `Cc1ccc(C)c(OCCCC(=O)Nc2nccs2)c1`, the “hERG current change (%, negative = inhibition) at 10uM” value was found to be 12.9%.

Take `COc1cccc(NC(=O)CCc2c(C)nc3nc(CNC(=O)c4cccc(F)c4)nn3c2C)c1`: the “hERG current change (%, negative = inhibition) at 10uM” value is given as -47.3%.

For the compound `COc1ccc(CCC(=O)N2CCC3(CC2)OCCO3)cc1`, the “hERG current change (%, negative = inhibition) at 10uM” value is recorded as -12.6%.

For the compound `Clc1cccc(Cc2nn[nH]n2)c1`, the “hERG current change (%, negative = inhibition) at 10uM” value turned out to be 19.7%.

Regarding `CCCCNC(=S)Nc1ccc(OC)nc1`, the “hERG current change (%, negative = inhibition) at 10uM” value was 30.8%.

On to `Clc1ccc(-c2cc(-c3ccccn3)on2)c(Cl)c1`, for which the “hERG current change (%, negative = inhibition) at 10uM” value is listed as 15.9%.

Regarding `COc1ccccc1NC(=S)N=Nc1c(O)[nH]c2ccc(Br)cc12`, the “hERG current change (%, negative = inhibition) at 10uM” value is listed as -1.23%.

With `CCn1c(SCC#N)nc2c(c1=O)C1(CCCC1)Cc1ccccc1-2`, the “hERG current change (%, negative = inhibition) at 10uM” value was 2.38%.

Take `CC(C)(C)c1ccc(C(=O)Nc2sc3c(c2C(=O)O)CCC3)cc1`: the “hERG current change (%, negative = inhibition) at 10uM” value was found to be 20.3%.

On to `CC(C)(CO)NS(=O)(=O)c1ccc2c(c1)oc(=O)c1cc(S(=O)(=O)NC(C)(C)CO)ccc12`, for which the “hERG current change (%, negative = inhibition) at 10uM” value is listed as -3.11%.

With `Cc1cc(C)cc(-n2ncc3c2CCCC3NC(=O)c2cc(C)n(C)n2)c1` (stereo not drawn), the “hERG current change (%, negative = inhibition) at 10uM” value stood at 8.12%.

Take `O=C(O)c1cccc(Cn2c(Cl)c(/C=N/NC(=O)c3cccc(O)c3)sc2=O)c1`: the “hERG current change (%, negative = inhibition) at 10uM” value worked out at 27.8%.

As to `O=C(O)c1cc(Cl)c(Cl)cc1C(=O)Nc1cccnc1`, the “hERG current change (%, negative = inhibition) at 10uM” value was -6.4%.

As for `O=C(O)CCc1ccc(-c2cccs2)n1-c1ccc(C(=O)O)cc1`, the “hERG current change (%, negative = inhibition) at 10uM” value stood at 13.6%.

`Cc1ccc(CNC(=O)c2ccc(NC3=NC4CS(=O)(=O)CC4S3)cc2)cc1` (stereo not drawn): the “hERG current change (%, negative = inhibition) at 10uM” value was -1.11%.

For the compound `Cc1cc2c(cc1C)-c1nnnn1C(C)(C)C2`, the “hERG current change (%, negative = inhibition) at 10uM” value stood at 15.2%.

With `C=CCNC(=O)CSc1nc2scc(-c3ccco3)c2c(=O)n1CC=C`, the “hERG current change (%, negative = inhibition) at 10uM” value is reported as -34.5%.

For `Cc1ccc(CNC(=O)C2CCN(S(=O)(=O)c3ccc4nc5c(c(C(=O)O)c4c3)CC(C)CC5)CC2)cc1` (stereo not drawn), the “hERG current change (%, negative = inhibition) at 10uM” value came to 5.24%.

For `O=C(O)c1nc(-c2ccccc2)n(-c2ccc(Cl)cc2)n1`, the “hERG current change (%, negative = inhibition) at 10uM” value was found to be 13.7%.

Consider `Cc1c(Cl)cccc1NC(=S)NCc1cccs1`, for which the “hERG current change (%, negative = inhibition) at 10uM” value came out at 1.06%.

For `CC1CCN(CCCNC(=O)C2CC(=O)N(CCc3ccccc3)C2)CC1` (stereo not drawn), the “hERG current change (%, negative = inhibition) at 10uM” value is listed as -37.1%.

In the case of `Cc1ccc(N(CC(O)CN2C(=O)NC(C)(C)C2=O)S(=O)(=O)c2ccc([N+](=O)[O-])cc2)cc1` (stereo not drawn), the “hERG current change (%, negative = inhibition) at 10uM” value was -32.7%.

Consider `O=C(CSc1nnc(NC(=O)C2CC2)s1)Nc1ccccc1Cl`, for which the “hERG current change (%, negative = inhibition) at 10uM” value came to 15.3%.

For `CN(CC(=O)Nc1cccc(F)c1)C(=O)c1ccc(NC2CC2)c([N+](=O)[O-])c1`, the “hERG current change (%, negative = inhibition) at 10uM” value was -68.5%.

Turning to `Cc1cc(=O)oc2cc3c(cc12)OCCN3`, the “hERG current change (%, negative = inhibition) at 10uM” value worked out at 4.94%.
